# Assay results taken from a collection of fitness landscapes (doi:10.1038/s41467-024-54723-y).
# In all, about 18,000 sequences were measured (“TetR repression strength (sort-seq, GFP reporter)”: median about 0.23, highest 2% from about 0.68 on). Some of the results follow.
# Biological target: TetR (class B, Tn10) (UniProt P04483)
# Experiment: TetR repression strength (sort-seq, GFP reporter) (relative to tetO2 = 1); higher = stronger repression
# Conditions: E. coli
# Procedure, shortened: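 Escherichia coli SIG10-MAX cells carried a low-copy plasmid library in which eight operator positions were randomized between a constitutive promoter and sfGFP, and TetR was expressed constitutively. After 5 h of growth at 37 °C in LB with 50 µg/mL chloramphenicol, 10^6 cells were FACS-sorted into 13 fluorescence bins, and each bin was Illumina-sequenced. Repression strength was the top bin index plus one minus the read-weighted mean bin, divided by the value for the unaltered operator. Across three independent transformations, only library members with ≥30 reads in every replicate and a CV ≤0.5 were averaged.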
# Chain of UniProt P04483 (P04483 whole entry): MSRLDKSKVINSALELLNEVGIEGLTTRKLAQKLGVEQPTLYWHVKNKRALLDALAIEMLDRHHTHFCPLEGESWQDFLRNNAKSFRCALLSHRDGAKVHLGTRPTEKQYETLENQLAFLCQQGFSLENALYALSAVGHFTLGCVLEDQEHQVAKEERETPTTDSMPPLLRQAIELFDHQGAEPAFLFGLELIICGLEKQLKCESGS
row,Sequence,TetR repression strength
1,TCCCCGTTAGTTACTGAGA,0.222
2,TCCCATATAGTGGCGGAGA,0.0484
3,TCCCGGGCAGTTATGGAGA,0.1
4,TCCCTCCGAGTGTTGGAGA,0.0665
5,TCCCGCAAAGTTAGTGAGA,0.0818
6,TCCCGTTTAGTGTGTGAGA,0.212
7,TCCCGAGGAGTGCTAGAGA,0.108
8,TCCCGAAAAGTTTATGAGA,0.0921
9,TCCCTTGCAGTGTTCGAGA,0.441
10,TCCCCACGAGTCGGGGAGA,0.411
11,TCCCAATCAGTGGAGGAGA,0.26
12,TCCCTTCAAGTGTTGGAGA,0.208
13,TCCCATTGAGTGAGCGAGA,0.435
14,TCCCTCGCAGTCCGCGAGA,0.188
15,TCCCACAAAGTGCGAGAGA,0.495
16,TCCCAGCAAGTGGGGGAGA,0.237
17,TCCCAGCGAGTCAGTGAGA,0.149
18,TCCCTTCAAGTGGTAGAGA,0.292
19,TCCCTGTGAGTCGGAGAGA,0.0538

row,Sequence,TetR repression strength
1,TCCCTGTAAGTAGGTGAGA,0.0648
2,TCCCACGCAGTGCATGAGA,0.234
3,TCCCTGGCAGTCTGTGAGA,0.0742
4,TCCCCCGAAGTGGTGGAGA,0.205
5,TCCCGTCTAGTGTTTGAGA,0.371
6,TCCCATTTAGTTGTTGAGA,0.121
7,TCCCGGCCAGTGCGTGAGA,0.32
8,TCCCGCGGAGTCAACGAGA,0.307
9,TCCCATATAGTCAGTGAGA,0.166
10,TCCCATGTAGTTAAGGAGA,0.127
11,TCCCTGAAAGTCACGGAGA,0.337
12,TCCCGCTAAGTAAGGGAGA,0.124
13,TCCCTAAAAGTTGGCGAGA,0.403
14,TCCCACCTAGTTCGTGAGA,0.116
15,TCCCTAATAGTATAGGAGA,0.207
16,TCCCAATCAGTGAAAGAGA,0.686
17,TCCCGTAGAGTAATCGAGA,0.25
18,TCCCTGTCAGTGGCGGAGA,0.391
19,TCCCGAGCAGTTCCCGAGA,0.148

row,Sequence,TetR repression strength
1,TCCCCGGTAGTGAGGGAGA,0.299
2,TCCCCTGCAGTATGGGAGA,0.113
3,TCCCGGATAGTTAAGGAGA,0.213
4,TCCCATGGAGTGTTGGAGA,0.177
5,TCCCATTCAGTGAAGGAGA,0.223
6,TCCCGGGTAGTGGGGGAGA,0.273
7,TCCCCACGAGTCTCTGAGA,0.326
8,TCCCGCAAAGTTCCGGAGA,0.236
9,TCCCGGAGAGTGGGGGAGA,0.171
10,TCCCATGAAGTCCTAGAGA,0.32
11,TCCCCCACAGTTTAAGAGA,0.307
12,TCCCTTATAGTCCACGAGA,0.238
13,TCCCGTGGAGTGACTGAGA,0.356
14,TCCCGAGAAGTTGGTGAGA,0.146
15,TCCCAGGAAGTGGGGGAGA,0.191
16,TCCCCTTGAGTATGTGAGA,0.409
17,TCCCTGCAAGTTGTCGAGA,0.192
18,TCCCATGCAGTCGGCGAGA,0.235
